# Measured values taken from article PMC4336329 (PLoS ONE, 2015).
# The campaign covered roughly 310,000 compounds. About 14,000 (4.5%) showed an effect of 50% or more. The effect is printed as a negative number. This is one part of the list.
# Biological target: human ether-à-go-go-related gene (hERG) potassium channel (human, UniProt Q12809)
# Assay: primary screen, population patch clamp on CHO cells stably expressing hERG
# 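Also: peak tail current of the secondary pulse compared with the same well before compound.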
# human ether-à-go-go-related gene (hERG) potassium channel, sequence (Q12809 whole entry, looked up): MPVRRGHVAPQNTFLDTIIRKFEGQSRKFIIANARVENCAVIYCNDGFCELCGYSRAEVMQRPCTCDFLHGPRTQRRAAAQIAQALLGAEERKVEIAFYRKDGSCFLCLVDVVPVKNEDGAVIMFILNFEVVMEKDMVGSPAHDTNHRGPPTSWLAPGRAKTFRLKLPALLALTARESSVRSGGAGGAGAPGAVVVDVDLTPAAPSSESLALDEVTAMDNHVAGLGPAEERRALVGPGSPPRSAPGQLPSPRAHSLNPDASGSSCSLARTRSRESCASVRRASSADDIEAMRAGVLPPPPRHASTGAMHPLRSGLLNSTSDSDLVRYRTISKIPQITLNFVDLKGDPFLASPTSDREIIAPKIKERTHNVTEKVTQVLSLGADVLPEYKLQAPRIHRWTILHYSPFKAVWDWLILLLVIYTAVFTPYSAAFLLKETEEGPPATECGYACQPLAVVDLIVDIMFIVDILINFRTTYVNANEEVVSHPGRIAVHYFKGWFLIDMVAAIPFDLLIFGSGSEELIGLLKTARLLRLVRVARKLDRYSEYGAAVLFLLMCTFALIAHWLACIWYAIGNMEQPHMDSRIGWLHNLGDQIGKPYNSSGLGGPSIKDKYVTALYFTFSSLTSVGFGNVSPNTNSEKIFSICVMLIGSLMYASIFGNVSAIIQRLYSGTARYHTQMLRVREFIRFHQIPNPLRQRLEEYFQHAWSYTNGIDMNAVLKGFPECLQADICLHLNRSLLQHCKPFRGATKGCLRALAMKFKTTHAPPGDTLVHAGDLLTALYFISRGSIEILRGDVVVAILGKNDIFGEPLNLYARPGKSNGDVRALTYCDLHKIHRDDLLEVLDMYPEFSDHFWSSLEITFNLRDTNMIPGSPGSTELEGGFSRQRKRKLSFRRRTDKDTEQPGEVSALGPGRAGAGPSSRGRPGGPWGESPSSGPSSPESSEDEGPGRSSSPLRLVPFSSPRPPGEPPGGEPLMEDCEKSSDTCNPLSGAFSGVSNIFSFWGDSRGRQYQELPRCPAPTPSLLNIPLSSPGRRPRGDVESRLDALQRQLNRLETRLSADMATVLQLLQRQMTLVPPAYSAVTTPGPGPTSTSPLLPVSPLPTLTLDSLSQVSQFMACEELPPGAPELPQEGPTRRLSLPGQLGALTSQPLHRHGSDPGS
row,Structure (SMILES),"hERG current change (%, negative = inhibition) at 10uM"
1,COc1cccc(/C=N/n2c(-c3ccco3)nc3ccccc3c2=O)c1OC,-3.99%
2,CCCCn1c(N)c(N(CCOC)C(=O)c2cccc(S(=O)(=O)N(C)c3ccccc3)c2)c(=O)[nH]c1=O,6.58%
3,O=C(C1CCN(CCCc2ccccc2)CC1)N(CCc1ccccc1)Cc1ccccc1.O=C(O)C(=O)O,-75%
4,Cc1ccc(/C=C(\NC(=O)c2ccccc2)C(=O)OCc2ccccc2)cc1,10.3%
5,[N-]=[N+]=CC(=O)CCCN1C(=O)c2ccccc2C1=O,7.83%
6,CC(Oc1ccc(F)cc1)C(=O)Nc1nc(-c2ccccn2)cs1 (stereo not shown),-76.3%
7,COCC(=O)Nc1cc(C)c2c(=O)oc3ccccc3c2n1,4.33%
8,COc1cc(C2C(C#N)=C(N)Oc3n[nH]c(-c4ccncc4)c32)cc(OC)c1OC (stereo not shown),0.28%
9,O=C(Cc1ccccc1)Nc1ccccc1C(=O)N1CCCCC1,13.7%
10,COc1cc(/C=C/C(=O)O)cc(S(=O)(=O)Nc2ccc3nc(C)sc3c2)c1OC,26.5%
11,CCc1ccc(CCC(=O)Nc2ccc(Br)cc2)o1,9.3%
12,COc1ccc(CNC(=O)C(C)N(C)Cc2cccc(F)c2)cc1 (stereo not shown),-17.9%
13,CCCc1ccc(OCc2ccc(C(=O)O)o2)c(OC)c1,8.51%
14,Cc1ccc(C(=O)NNC(=S)NCC2CCCO2)cc1[N+](=O)[O-] (stereo not shown),-40.6%
15,COc1ccc2cc(C(=O)C3CCCN(C(=O)c4cccnc4)C3)ccc2c1 (stereo not shown),-25.1%
16,COc1ccc(NC(=O)CCc2nnc3ccc(NCc4ccc5c(c4)OCO5)nn23)cc1,12.9%
17,O=S(=O)(Nc1ccccc1)c1ccc(NS(=O)(=O)c2cccs2)cc1,0.645%
18,COc1cccc(-n2c(=O)c3ccccc3n(CC(=O)NCC3CCCO3)c2=O)c1 (stereo not shown),21.9%
19,CC(C)(C)OC(=O)NCCC(=O)N/N=C/c1ccc2nccnc2c1,13.4%
20,Cc1nn(C)c(Cl)c1CN1CCCC(CO)(Cc2cccc(Cl)c2)C1 (stereo not shown),-59.8%
21,O=C(N/N=C/C=C/c1ccccc1)c1cnccn1,6.57%
22,COc1ccc2c(Cl)c(-c3nnc(SCC(=O)c4ccccc4)n3C)sc2c1,8.28%

row,Structure (SMILES),"hERG current change (%, negative = inhibition) at 10uM"
1,Cc1ccc(NC(=O)CS(=O)CC(=O)N(C2CCCC2)C(C)C(=O)NC2CCCCC2)cc1 (stereo not shown),-22.5%
2,Cn1c(=O)c2c(-c3ccccc3)n(CCCN3CCOCC3)cc2n(C)c1=O,16.1%
3,CCOc1cccc(CNCCO)c1OCc1ccc(Cl)cc1.Cl,-53.2%
4,O=C(COC(=O)CC1c2ccccc2CCN1S(=O)(=O)c1ccc(F)cc1)Nc1ccccc1 (stereo not shown),2.63%
5,CSCCC1NC(=O)N(CC(=O)Nc2ccc(N3CCCCC3)cc2)C1=O (stereo not shown),-9.48%
6,CCn1cc(S(=O)(=O)c2ccc(C)cc2)c(=O)c2cc(OC)ccc21,-8.72%
7,Cc1ccccc1S(=O)(=O)Cc1ccc(C(=O)N2CCN(c3ccc(F)cc3)CC2)o1,-64.3%
8,COC(/C=C/Nc1ccc(Cl)cc1)=C(C#N)C#N,-37.9%
9,Cc1nnc(N2C(=O)C(O)=C(C(=O)c3ccco3)C2c2ccc(C(C)C)cc2)s1 (stereo not shown),4.25%
10,CN(C)S(=O)(=O)c1ccc(C(=O)OCC(=O)NC(=O)NCc2ccccc2)cc1,-1.48%
11,COc1cc(CCC(=O)Nc2nnc(C)s2)cc(OC)c1OC,22%
12,CCOc1ccc(CNC(=O)CCCC(=O)n2nc(C)c3ccccc32)cc1,-12.4%
13,CN1c2ccc(Cl)cc2C(=O)NC1C1CC=CCC1 (stereo not shown),7.1%
14,Cc1cccc(N2CCN(C(=O)c3cc(S(=O)(=O)N4CCOCC4)cn3C)CC2C)c1 (stereo not shown),8.88%
15,N#C/C(=C(/O)c1ccc([N+](=O)[O-])cc1)c1nnc2n1CCCCC2,-1.37%
16,Cc1ccc(C(=O)O)cc1S(=O)(=O)N1CCCC1,-4.72%
17,O=C(C(NS(=O)(=O)c1cccs1)c1ccccc1)N1CCN(c2ccccc2)CC1 (stereo not shown),-33.4%
18,Cn1c(SCC(=O)N2CCCC2)nnc1-c1ccc(S(=O)(=O)N2CCCC2)cc1,-5.2%
19,CCOP(=O)(OCC)C(NC(=O)Nc1c(C)cc(C)cc1C)c1ccccc1 (stereo not shown),4.12%
20,CCOC(=O)c1cccc(NC(=O)CCNS(=O)(=O)c2ccc3c(c2)CCN3C(=O)CC)c1,-37.2%
21,Fc1ccc(N/N=C2/CCSc3sccc32)c(F)c1,-1.19%
22,Oc1ccc(-c2csc(Nc3ccccn3)n2)c(O)c1,14.7%

row,Structure (SMILES),"hERG current change (%, negative = inhibition) at 10uM"
1,COc1ccc(C)cc1NC(=O)CN1CCN(S(=O)(=O)c2ccc(C(C)C)cc2)CC1,-2.46%
2,CCOc1ccc(OCC)c(NS(=O)(=O)c2ccc3c(c2)n(C)c(=O)c(=O)n3C)c1,-37.8%
3,Cl.O=C(O)c1ccc(CNCc2cccc(OCc3ccc(F)cc3)c2)cc1,25.5%
4,Cc1ccc(C(=O)OCC(=O)N(C)c2ccccc2)cc1C,-9.59%
5,O=C(NNC(=S)NC1CCCCC1)c1sc2ccccc2c1Cl,7.99%
6,Cc1ccccc1N=C1NC(=O)CS1,13.5%
7,COc1ccc(Cn2cnc3c(N)c(C)c(C)cc32)cc1,5.13%
8,CN(CC(=O)NC(=O)NC(C)(C)C)CC(=O)Nc1ccccc1Cl,3.53%
9,COc1ccc(-c2noc(CNC(=O)c3ccoc3C)n2)cc1OC,18.6%
10,CN(C)N=Nc1ccc(S(N)(=O)=O)cc1,15.4%
11,C/C=C/c1ccc(OCC(=O)Nc2ccncc2)c(OC)c1,-14.9%
12,Cn1c(=O)c2c(nc(Cl)n2CCOc2ccccc2)n(C)c1=O,6.36%
13,CCCCCn1c(C(Cc2ccccc2)NC(=O)COC)nc2ccccc21 (stereo not shown),-45.9%
14,CCOC(=O)c1cc(CC)sc1NC(=O)c1ccc2c(c1)OCCO2,-3.4%
15,O=C1c2ccccc2-c2onc3ccc(Oc4ccccc4)c1c23,-13.8%
16,CCSc1nnc(NC(=O)c2cccnc2)s1,2.16%
17,S=C1NCN(C2CCCCC2)CN1c1ccccc1,17.1%
18,O=C(O)/C=C/c1ccc(S(=O)(=O)Nc2cccnc2)cc1,17.1%
19,COCCNC(=O)c1cc2sccc2n1C,1.67%
20,CCOC(=O)C1CCCCN1Cc1cn[nH]c1-c1ccc(F)cc1F (stereo not shown),1.06%
21,O=C(NCc1ccco1)C1CCC(CNS(=O)(=O)c2cccc3cccnc23)CC1 (stereo not shown),13.6%
22,O=[N+]([O-])c1ccc(Oc2cccc(C(F)(F)F)c2)nc1,3.06%

row,Structure (SMILES),"hERG current change (%, negative = inhibition) at 10uM"
1,C=CCOn1c(=O)c(-c2ccc(OC)c(OC)c2)[n+]([O-])c2ccccc21,-5.62%
2,COc1ccc(C(C)=O)cc1Cn1nnc(-c2ccccc2Br)n1,-21.9%
3,COCCNc1nc(SCc2ccccc2)nc2sc3c(c12)CCC3,-1.51%
4,O=C(c1ccccc1)c1ccc(OCCn2cnc3ccccc3c2=O)cc1,-0.949%
5,COc1ccc(CNC(=O)CN(C)S(=O)(=O)c2ccc(Cl)cc2)cc1,-20.4%
6,O=C(CN1C(=O)C(=O)N(C2CCCC2)C1=O)Nc1ccc(OC(F)F)cc1,0.249%
7,CCOC(=O)N1CCN(CC(O)COc2cc(C)cc(C)c2)CC1.Cl (stereo not shown),-12.7%
8,O=C(/C=C/c1ccc2ccccc2n1)c1cc(Br)ccc1O,-0.463%
9,O=C(O)CNc1nc(Cl)ccc1[N+](=O)[O-],6.24%
10,COc1ccc(OC(=O)c2c(C)nn(-c3ccccc3)c2C)cc1,3.71%
11,Fc1cccc(F)c1-n1c(CN2CCOCC2)csc1=S,40.8%
12,CSCCC(NC(=O)OCc1ccccc1)C(=O)O (stereo not shown),8.89%
13,CC(=O)C1C(c2cn(-c3ccccc3)nc2-c2cccs2)NC(=O)NC1(O)C(F)(F)F (stereo not shown),11.6%
14,COc1cccc(-n2c(-c3ccco3)nc3nc4ccccc4nc32)c1,18.4%
15,Cc1ccc(NC(=S)NN(C)c2cc(C)nc(C)n2)cc1,-4.1%
16,O=C(NC1CC(=O)N(c2ccc(F)cc2)C1)C(=O)c1c[nH]c2ccccc12 (stereo not shown),-1.77%
17,COc1ccc(NC(=O)CSc2nnc(-c3ccccn3)n2N)cc1,9.24%
18,Cc1ccc(-c2nnn(CC(=O)N(c3ccc(F)cc3)C(C(=O)NC3CCCC3)c3ccncc3)n2)o1 (stereo not shown),8.7%
19,CC1CCCN(CC(O)COc2ccc3c(c2)OCO3)C1.Cl (stereo not shown),-15.1%
20,COC(=O)[C@H](Cc1ccccc1)N(C)S(=O)(=O)c1cccc(S(=O)(=O)N(C)[C@@H](Cc2ccccc2)C(=O)OC)c1,7.14%
21,COc1ccc(Cl)cc1NC(=O)/C=C/C(=O)O,13.6%
22,Nc1cc(=O)[nH]c(SCCSc2ccc(F)cc2)n1,0.794%
